The campaign covered roughly 390,000 compounds. About 4,700 (1.2%) were called active. Inconclusive means that the source gave no clear call. Such entries were picked first, then a sample of the others. Calls follow the shape of the dose curve; as a rule, active = well fitted inhibition curve with a large enough effect; inconclusive = small, poorly fitted or top-dose-only effect, or another doubt; inactive = no such curve, though single readings can be large or run the other way. A potency beside an inconclusive call is a rough fit, not a confirmed value.
Each compound was assayed against DNA polymerase eta (Homo sapiens) (UniProt Q9Y253) (assay: qHTS for Inhibitors of Polymerase Eta). Details: recombinant Pol eta, fluorescent DNA replication assay; series mostly up to 114 µM.
In short: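 Pol eta (10 nM) was preincubated with compounds for 15 min at room temperature, after which fluorescent replication substrate (50 nM final) was added to start the reaction. Fluorescence was read kinetically at 0 and 10 min.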
Potency is read from the fitted curve at half-maximal effect; tags tell the direction and shape of the fitted curve.

UniProt Q9Y253, sequence (Q9Y253 whole entry, looked up): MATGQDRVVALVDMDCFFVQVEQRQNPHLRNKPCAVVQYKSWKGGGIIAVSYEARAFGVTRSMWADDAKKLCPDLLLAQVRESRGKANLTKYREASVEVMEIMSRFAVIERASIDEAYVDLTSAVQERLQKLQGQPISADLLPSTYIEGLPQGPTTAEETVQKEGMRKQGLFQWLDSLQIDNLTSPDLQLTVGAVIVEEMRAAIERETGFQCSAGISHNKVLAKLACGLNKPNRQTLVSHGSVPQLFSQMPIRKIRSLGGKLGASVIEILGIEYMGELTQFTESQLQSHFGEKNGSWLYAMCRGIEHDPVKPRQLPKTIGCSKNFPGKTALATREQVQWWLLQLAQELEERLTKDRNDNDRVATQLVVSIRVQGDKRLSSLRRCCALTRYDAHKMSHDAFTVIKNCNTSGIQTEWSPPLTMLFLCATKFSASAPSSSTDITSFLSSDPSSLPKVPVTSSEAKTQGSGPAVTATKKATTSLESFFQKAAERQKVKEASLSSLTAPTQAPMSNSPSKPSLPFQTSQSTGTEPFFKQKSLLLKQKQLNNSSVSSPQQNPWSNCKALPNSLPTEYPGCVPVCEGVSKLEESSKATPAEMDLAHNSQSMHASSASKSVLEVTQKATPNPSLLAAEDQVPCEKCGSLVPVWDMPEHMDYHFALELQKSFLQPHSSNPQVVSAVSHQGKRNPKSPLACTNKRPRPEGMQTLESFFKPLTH

| Compound | Potency |
| --- | --- |
| CC(=O)Nc1ccc(Nc2nc3c(S(=O)(=O)c4cccc(Cl)c4)nnn3c3ccsc23)cc1 | active: 79.4 µM |
| COc1ccc(CCNC(=O)Cn2c(=O)c3cccn3c3ccc(F)cc32)c(OC)c1 | inactive |
| CCN(CC)Cc1c(NC(=O)c2ccc(OC)cc2)sc2c1CCCC2 | inactive |
| O=C(Cn1c2ccccc2c(=O)c2ccccc21)N/N=C/c1ccc(N2CCCC2)c([N+](=O)[O-])c1 | inconclusive: 7.08 µM [inhibitor, full curve, poor fit] |
| COc1ccc(S(=O)(=O)Nc2cc([N+](=O)[O-])ccc2OC)cc1 | inactive |
| N#Cc1ccc(-c2ccc(F)cc2)nc1SCC(=O)Nc1sc2c(c1C#N)CCC2 | inconclusive: 22.4 µM [inhibitor, partial curve, poor fit] |
| CCOc1ccc(NC(=O)N(Cc2c[nH]c3ccccc23)C2CCCCCC2)cc1 | inactive |
| COC(=O)c1cc(C(=O)OC)cc(-n2c(C)cc(C(=O)COC(=O)CNS(=O)(=O)c3ccc(C)cc3)c2C)c1 | active: 22.4 µM |
| Cc1ccc(C(=O)OCC(=O)NC2CCCCC2)o1 | inactive |
| O=C(O)c1ccc2nc(-c3ccccc3)c(-c3ccccc3)nc2c1 | inconclusive: 12.6 µM [inhibitor, partial curve, poor fit] |
| O=C(CCN1C(=O)/C(=C/c2ccc3c(c2)OCO3)SC1=S)Nc1ccc(C(=O)O)cc1 | inconclusive: 39.8 µM [inhibitor, partial curve] |
| NS(=O)(=O)c1ccc(CCNC(=O)CCC(=O)c2cccs2)cc1 | active: 89.1 µM |
| CS(=O)(=O)N1CCC(C(=O)NCc2ccco2)CC1 | inconclusive: 100 µM [inhibitor, single point] |
| Cc1ccc(-n2nc3c(N4CCC(C(=O)NC(C)c5ccccc5)CC4)nnc(C)c3c2C)cc1 (configuration not stated) | inconclusive: 100 µM [inhibitor, partial curve, poor fit] |
| NC(=O)[C@@H]1CCCN1Cc1nc(-c2cccs2)no1 | inactive |
| COc1ccc(OC)c(-c2csc(NC(=O)COC(=O)c3ccc(NC(=O)CC#N)cc3)n2)c1 | active: 20 µM |
| CC1CC(C)(C)CC2(C1)NC(=O)N(CC(=O)N1CCN(S(=O)(=O)c3cccc(Cl)c3Cl)CC1)C2=O (configuration not stated) | inconclusive: 89.1 µM [inhibitor, partial curve, poor fit] |
| CCn1c(Cc2ccccc2)nnc1SCC(=O)Nc1nc2ccccc2s1 | inconclusive: 31.6 µM [inhibitor, partial curve] |
| CC1=NN(c2cc(Cl)c(S(=O)(=O)O)cc2Cl)C(=O)C1 | active: 22.4 µM |
| COc1ccc(OC)c(Nc2nc3ccccc3n3c(C)nnc23)c1 | inactive |
| CCOC(=O)C1C(c2ccccc2)NC(=S)NC1(C)O (configuration not stated) | inactive |
| O=Cc1ccc2noc(-c3ccc(Cl)cc3)c2c1 | inconclusive: 5.62 µM [inhibitor, partial curve, poor fit] |
| CCOC(=O)c1sc(NC(=O)c2ccc(=O)[nH]c2)nc1C | inconclusive: 79.4 µM [inhibitor, partial curve, poor fit] |

| Compound | Potency |
| --- | --- |
| Cc1ccc(SCC(=O)c2ccc(CC(=O)O)s2)cc1 | active: 50.1 µM |
| Cc1ccc(C(OC(=O)c2ccco2)C(=O)NCc2cccs2)cc1 (configuration not stated) | inconclusive: 89.1 µM [inhibitor, partial curve, poor fit] |
| CCc1ccc(NC(=O)COc2ccc(/C=C(/C#N)c3nc4ccccc4[nH]3)cc2OC)cc1 | inconclusive: 10 µM [inhibitor, full curve, poor fit] |
| O=C(N/N=C\C=C\c1ccc(Br)cc1)c1ccc2c(c1)OCO2 | inactive |
| CCOc1cccc2sc(Nc3nc4ccc(NC(C)=O)cc4s3)nc12 | inconclusive: 15.8 µM [inhibitor, partial curve] |
| Fc1ccc(CN2CCN3CCCC3C2C2CCCCC2)cc1F (configuration not stated) | inconclusive: 79.4 µM [inhibitor, partial curve, poor fit] |
| CCOc1cc(/C=C2/C(=O)ON=C2C)ccc1OCc1ccccc1F | inconclusive: 89.1 µM [inhibitor, single point] |
| COc1ccc(N2CC(C(=O)NCCN3C(=O)S/C(=C\c4cccnc4)C3=O)CC2=O)c(OC)c1 (configuration not stated) | inconclusive: 14.1 µM [inhibitor, partial curve, poor fit] |
| O=c1[nH]c(Nc2ccc(F)cc2)cc2ccccc12 | active: 22.4 µM |
| CCOc1ccccc1NC(=O)CN1C(=O)CC(c2ccco2)Sc2ccccc21 (configuration not stated) | inactive |
| CCS(=O)(=O)c1ccc(O)c(NC(=O)NC2CCCCC2)c1 | inconclusive: 89.1 µM [inhibitor, partial curve, poor fit] |
| N#CC(=C1CCCC1)c1nc(-c2ccccc2O)cs1 | inconclusive: 15.8 µM [inhibitor, full curve, poor fit] |
| O=C(N/N=C/c1ccc([N+](=O)[O-])o1)c1ccc(NS(=O)(=O)c2cccs2)cc1 | active: 31.6 µM |
| N#CC(=C(c1ccccc1)c1ccccc1)c1ccccc1 | inconclusive: 50.1 µM [inhibitor, partial curve, poor fit] |
| COCc1cc(C)nc(SCc2ccc(Cl)cc2)c1C#N | inconclusive: 79.4 µM [inhibitor, partial curve, poor fit] |
| CC(C)CN=Cc1c(O)c([N+](=O)[O-])cc2oc3c(c12)CCCC3 | inconclusive: 25.1 µM [inhibitor, partial curve] |
| COc1ccc(NC(=O)c2oc3ccccc3c2NC(=O)c2cc(=O)c3c(C)cc(C)cc3o2)cc1 | inconclusive: 89.1 µM [inhibitor, partial curve, poor fit] |
| Oc1ccc(/C=N/Nc2cc(N3CCCC3)nc(N3CCCC3)n2)cc1O | inconclusive: 2 µM [inhibitor, full curve, poor fit] |
| COc1ccc(N=C2NC(=O)/C(=C/c3ccc(O)c(OC)c3)S2)cc1 | inconclusive: 25.1 µM [inhibitor, partial curve, poor fit] |
| COCCN1C(=O)c2[nH]nc(-c3ccccc3O)c2C1c1ccc(OCc2ccccc2)c(OC)c1 (configuration not stated) | inconclusive: 100 µM [inhibitor, partial curve, poor fit] |
| CC(C)c1nc2oc3c(NCc4cccnc4)ncnc3c2c2c1CCC2 | inconclusive: 50.1 µM [inhibitor, partial curve, poor fit] |
| CCOC(=O)c1c(C)sc2c1N(C(=O)CCl)c1cc(Cl)ccc1S2 | inconclusive: 28.2 µM [inhibitor, partial curve] |
| COc1ccc2nc(SCC(=O)Nc3ccc4c(c3)CCC4)[nH]c2c1 | inconclusive: 44.7 µM [inhibitor, partial curve, poor fit] |

| Compound | Potency |
| --- | --- |
| Cc1cccc(CN2C(=O)c3ccccc3Sc3ccc(C(=O)N4CCCC4)cc32)c1 | inconclusive: 50.1 µM [inhibitor, partial curve, poor fit] |
| c1ccc(COc2ccc(OCCCCN3CCCCC3)cc2)cc1 | inconclusive: 89.1 µM [inhibitor, partial curve, poor fit] |
| O=c1c(C=Nc2ccc(Oc3ccccc3)cc2)c[nH]n1-c1cccc(Cl)n1 | inconclusive: 20 µM [inhibitor, single point] |
| CCCCc1ccc(-n2nc3cc(C)c(NC(=O)Cc4ccccc4)cc3n2)cc1 | inactive |
| O=C(NCCNCc1ccccc1)c1ccco1 | active: 50.1 µM |
| COc1ccc(CSc2nnc(N)s2)cc1F | inconclusive: 79.4 µM [inhibitor, partial curve, poor fit] |
| CC(C)COC(=O)N1CCN(S(=O)(=O)c2ccc3c(c2)CCC3)CC1 | inconclusive: 6.31 µM [inhibitor, partial curve, poor fit] |
| Cc1ccc2c(=O)c(C(=O)c3ccc(F)cc3)cn(CC(=O)NCc3ccccc3)c2n1 | inactive |
| COc1ccccc1Nc1nn2c(=O)c3ccc(C(=O)NCc4cccs4)cc3nc2s1 | inconclusive: 70.8 µM [inhibitor, partial curve, poor fit] |
| Cc1nn(C(C)C)c(C)c1CN1CCC(C(=O)Nc2cccc(-c3cccc(F)c3)c2)CC1 | inconclusive: 39.8 µM [inhibitor, single point] |
| Cc1ccc(S(=O)(=O)N2CCN(CC(=O)Nc3ccc4c(c3)CCC4)CC2)cc1C | inconclusive: 50.1 µM [inhibitor, partial curve, poor fit] |
| Cc1ccc(S(=O)(=O)N2[C@@H](c3ccc(Br)cc3)C(C(=O)O)=C[C@H]2CC2CCCC2)cc1 | inconclusive: 89.1 µM [inhibitor, single point] |
| O=S(=O)(Nc1nc2ccccc2nc1Nc1cccc(S(=O)(=O)N2CCCCC2)c1)c1ccccc1 | active: 89.1 µM |
| COc1cccc(CN(Cc2ccco2)c2cnc(S(C)(=O)=O)nc2C(=O)Nc2cccc(Cl)c2C)c1 | inactive |
| Cc1cccc(/N=C2/NC(=O)C(Cc3ccccc3)S2)n1 (configuration not stated) | inconclusive: 89.1 µM [inhibitor, partial curve, poor fit] |
| C#CCSc1nsc(SCC#C)c1C#N | active: 17.8 µM |
| CC(C)c1nc2sc3c(NCc4ccco4)ncnc3c2c2c1COC(C)(C)C2 | inconclusive: 31.6 µM [inhibitor, partial curve, poor fit] |
| CC(C)(C)c1ccc(O)c(O)c1 | inactive |
| O=C(O)c1cccc(-c2ccc(/C=c3/sc4nc5ccccc5n4c3=O)o2)c1 | active: 3.16 µM |
| O=C1SC(SCc2ccccc2)=N/C1=C\c1ccco1 | active: 79.4 µM |
| CSc1cccc(-n2cc(-c3ccc4c(c3)OCO4)[nH]c2=O)c1 | inconclusive: 17.8 µM [inhibitor, partial curve, poor fit] |

From PubChem BioAssay AID588591 (National Center for Advancing Translational Sciences (NCATS), 2011)
